According to PMC4336329 (PLoS ONE, 2015):
Among all 310,000 compounds or so, about 2,200 (0.71%) showed an effect of 50% or more. The effect is printed as a negative number. Some of the results follow.

These compounds were tested against human ether-à-go-go-related gene (hERG) potassium channel (human, UniProt Q12809) (assay: primary screen, population patch clamp on CHO cells stably expressing hERG).
Sequence of human ether-à-go-go-related gene (hERG) potassium channel (Q12809 whole entry, looked up): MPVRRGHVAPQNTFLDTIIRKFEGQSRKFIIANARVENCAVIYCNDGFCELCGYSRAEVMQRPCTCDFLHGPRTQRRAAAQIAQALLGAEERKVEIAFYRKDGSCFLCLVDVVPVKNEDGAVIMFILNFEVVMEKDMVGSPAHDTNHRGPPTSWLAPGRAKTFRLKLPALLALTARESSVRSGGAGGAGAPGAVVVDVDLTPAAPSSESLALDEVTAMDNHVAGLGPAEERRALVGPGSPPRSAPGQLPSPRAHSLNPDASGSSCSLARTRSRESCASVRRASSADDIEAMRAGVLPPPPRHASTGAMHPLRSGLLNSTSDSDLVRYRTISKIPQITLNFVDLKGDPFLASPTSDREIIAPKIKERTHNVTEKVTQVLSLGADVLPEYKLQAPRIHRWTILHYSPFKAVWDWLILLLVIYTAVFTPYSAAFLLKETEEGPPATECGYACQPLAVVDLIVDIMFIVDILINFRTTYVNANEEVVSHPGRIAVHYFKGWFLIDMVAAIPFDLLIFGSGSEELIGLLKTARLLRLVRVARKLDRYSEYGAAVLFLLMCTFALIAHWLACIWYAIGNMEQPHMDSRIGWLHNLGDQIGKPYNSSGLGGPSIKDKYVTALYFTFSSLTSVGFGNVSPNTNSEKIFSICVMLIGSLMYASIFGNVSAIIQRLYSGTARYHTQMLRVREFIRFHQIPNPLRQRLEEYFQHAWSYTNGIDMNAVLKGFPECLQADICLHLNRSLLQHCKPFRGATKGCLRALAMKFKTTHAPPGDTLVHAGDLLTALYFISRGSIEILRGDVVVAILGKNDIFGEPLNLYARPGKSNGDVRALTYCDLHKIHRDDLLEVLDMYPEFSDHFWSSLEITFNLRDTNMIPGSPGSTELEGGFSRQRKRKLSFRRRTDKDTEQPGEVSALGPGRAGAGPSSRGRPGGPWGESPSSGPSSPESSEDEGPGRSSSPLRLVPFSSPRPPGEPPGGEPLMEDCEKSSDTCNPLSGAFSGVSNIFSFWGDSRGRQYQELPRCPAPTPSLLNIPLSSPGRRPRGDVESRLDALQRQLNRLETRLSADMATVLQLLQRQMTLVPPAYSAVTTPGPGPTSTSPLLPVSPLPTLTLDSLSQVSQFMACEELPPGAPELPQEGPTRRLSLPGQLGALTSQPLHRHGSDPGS

Row | SMILES | hERG current change (%, negative = inhibition) at 1uM
1 | O=c1nc(N2CCCCC2)nc(Nc2ccccc2)[nH]1 | 3.72%
2 | Cc1cc(C)cc(N(C(=O)c2snc(C(N)=O)c2N)C(C(=O)NCC2CCCO2)c2cccs2)c1 (centres unmarked) | 0.0583%
3 | COc1ccc(CCNC(=O)C(=O)NCC2OCCN2S(=O)(=O)c2ccc(OC)c(OC)c2)cc1OC (centres unmarked) | 7.99%
4 | O=C(N/N=C/c1cn[nH]c1-c1ccccc1)c1ccco1 | 12%
5 | COc1ccc(CCn2c(=N)c(C(=O)NC3CCCC3)cc3c(=O)n4ccccc4nc32)cc1 | -89.2%
6 | OCCC1CN(Cc2cccn2-c2ccccn2)CCN1Cc1ccccc1 (centres unmarked) | -61.4%
7 | COc1cccc(NC(=O)N2CCCC2C(=O)NCc2ccco2)c1 (centres unmarked) | 9.13%
8 | O=C(NNc1ncnc2c1cnn2-c1ccccc1)c1cccs1 | 8.34%
9 | COc1ccccc1-n1c(SCC(=O)N(C)C2CCS(=O)(=O)C2)nc2ccccc2c1=O (centres unmarked) | 7.61%
10 | COC(=O)c1ccc(NC(=O)CNC(=O)c2sc3ccccc3c2Cl)cc1 | 7.15%
11 | O=C(COc1ccccc1)NCc1ccc(-n2cccc2)cc1 | 13.1%
12 | CC(C)C(=O)Nc1nc2c(c(=O)[nH]1)CCCC2 | 14.6%
13 | CC1CCCC(NC(=O)c2cccc(S(=O)(=O)N3CCN(c4ccccc4)CC3)c2)C1C (centres unmarked) | 11.5%
14 | O=C(c1ccc(S(=O)(=O)N2CCCCC2)cc1)N1CCCc2ccccc21 | 7.58%
15 | Cc1cc(C(=O)CSc2nnc(N)s2)c(C)n1CCc1ccc(F)cc1 | 6.05%
16 | COC(=O)c1ccc(OS(=O)(=O)c2ccc(NC(C)=O)cc2)cc1 | 15.8%
17 | CC(C)c1ccc(C(=O)NNC(=O)c2ccncc2)cc1 | 23.4%
18 | COc1cccc(C(=O)NNC(=O)C(=O)Nc2ccc(OC)cc2OC)c1 | 11.3%
19 | O=C(C1CCCN1C(=O)c1cccs1)N1CCN(Cc2ccc3c(c2)OCO3)CC1 (centres unmarked) | 2.52%

Row | SMILES | hERG current change (%, negative = inhibition) at 1uM
20 | Cc1ccc(NC(=O)C2CCN(S(=O)(=O)c3cccc(C(F)(F)F)c3)CC2)nc1 | 7.6%
21 | C=CCOC(=O)C1=C(C)NC(SCC(N)=O)=C(C#N)C1c1ccc(C)cc1 (centres unmarked) | 9.63%
22 | COc1ccccc1N1CCN(C(=O)c2oc3c(c2C)C(=O)CC(C)(C)C3)CC1 | 6.43%
23 | COc1ccc(C(=O)N(C)CCCC2CCCC2)cc1OC1CCN(C(C)=O)CC1 | -0.899%
24 | NS(=O)(=O)c1ccc(CCNC(=O)c2cnccn2)cc1 | 12.7%
25 | O=C(Nc1ccc(Br)cc1)c1cccc(-n2cnnn2)c1 | 10.7%
26 | COc1ccc(C(=O)NNC(=O)C2=NN(c3ccccc3)C(=O)CC2)cc1 | 16.1%
27 | Cc1cccc(-c2nc(CSCC(=O)N3CCN(c4ccccn4)CC3)c(C)o2)c1 | -12.1%
28 | COc1ccc(NC(=O)N2CCCc3ccccc32)c(OC)c1 | 0.623%
29 | CCn1c(SCC(=O)N/N=C/C=C/c2ccccc2[N+](=O)[O-])nnc1-c1ccc(Cl)cc1 | 4.52%
30 | Cc1cc2cc3c(cc2nc1SCC(=O)O)CCC3 | 6.91%
31 | Cc1ccc(OCc2nnc(NC(=O)OCC(C)C)s2)c(C)c1 | 20.1%
32 | CCC1CCC(NC(=O)Nc2cccc(OC)c2)CC1 (centres unmarked) | 5.22%
33 | CCCCn1nnnc1NCc1ccc(OC)c(OC)c1 | 13.9%
34 | CCN(CC(=O)NC1CCS(=O)(=O)C1)c1ccc(S(C)(=O)=O)cc1[N+](=O)[O-] (centres unmarked) | -2.39%
35 | C[C@H](NC(=O)c1[nH]cnc1C(=O)Nc1ccccc1)C(=O)OC(C)(C)C | 12.6%
36 | COC(=O)c1c(NC(=O)C2C3CCC(C3)C2C(=O)O)sc2c1CCCCC2 (centres unmarked) | 13%
37 | O=C(NNc1nc2c(F)cc(F)cc2s1)c1ccccc1 | 11.4%
38 | Cc1ccccc1OCCSc1nc2ncnc(N)c2[nH]1 | 13.7%

Row | SMILES | hERG current change (%, negative = inhibition) at 1uM
39 | COc1cccc2sc(Nc3nnc(-c4cccs4)o3)nc12 | 16.7%
40 | CCC(C(=O)NCCCN1CCCCCC1)n1nc(C)c2sc3ccccc3c2c1=O (centres unmarked) | 17.7%
41 | O=C(NCC1CCCO1)c1cc(S(=O)(=O)N2CCCC2)c(Cl)cc1Cl (centres unmarked) | 18.4%
42 | COc1cccc(C(=O)NNC(=O)c2cccc(F)c2)c1 | 12.7%
43 | CC[n+]1c(/C=C/N(C)c2ccccc2)oc2ccccc21.O=S(=O)([O-])CCO | 12%
44 | CC(C)CCn1cnc2c1c(=O)n(C)c(=O)n2C | -3.28%
45 | Cc1cccc(-n2ccnc2SCC(=O)Nc2cc(C)on2)c1 | 4.85%
46 | CN1CCN(C2=CC(=O)OC23CCCCC3)CC1 | 15.6%
47 | O=c1c2cnn(-c3ccc(F)cc3)c2ncn1Cc1ccc(F)cc1 | 2.93%
48 | O=C1CC(c2cc3c(cc2Br)OCO3)C2=C(CCCC2=O)N1 (centres unmarked) | 6.16%
49 | NC(=O)C1CCN(C(=O)CC2(CC(=O)O)CCCCC2)CC1 | 16.1%
50 | CC1Cc2ccccc2N1C(=O)CSCC(=O)O (centres unmarked) | 11.4%
51 | Cc1nnc(Nc2ccc3c(c2)ncn3C)c2ccccc12 | 8.25%
52 | COc1cc(/C=C2/C(=O)NN(c3cccc(Cl)c3)C2=O)cc(Br)c1O | 14.4%
53 | COc1ccccc1CNC(=O)[C@H](C)NC(=O)C1CCN(C(=O)[C@@H](N)Cc2ccccc2)CC1 | -0.366%
54 | COc1cc(OC)c(C2=Nc3ccc(Br)cc3C(c3ccccc3)N2CC(=O)NN)cc1OC (centres unmarked) | 2.52%
55 | CC(C(=O)NC1CCCC1)N(c1ccc(Oc2ccccc2)cc1)S(C)(=O)=O (centres unmarked) | -7.27%
56 | CCCCNC(=S)NNc1c(Cl)cc(Cl)cc1Cl | 5.98%
